Assay results as given in patent US20180291110A1 (Hoffmann-La Roche, published 2018).

Tests used:
[1] = biological target: T1, HER2 on cells (BT474-M1, BT-474) (human, UniProt P04626); assay: flow cytometry on HER2+ BT474 M1 cells, PE-labeled goat anti-human Fc gamma secondary antibody
T1 construct: whole, on cells; also called HER2+ BT474-M1 cells

[2] = biological target: T2, transferrin receptor on BA/F3 cells (UniProt Q62351); assay: flow cytometry on mTfR+ BA/F3 cells, PE-labeled goat anti-human Fc gamma secondary antibody
T2 construct: whole, on cells; also called TfR+ BA/F3 cells; TfR+ BAF3 cells
T2 sequence (Q62351 whole entry): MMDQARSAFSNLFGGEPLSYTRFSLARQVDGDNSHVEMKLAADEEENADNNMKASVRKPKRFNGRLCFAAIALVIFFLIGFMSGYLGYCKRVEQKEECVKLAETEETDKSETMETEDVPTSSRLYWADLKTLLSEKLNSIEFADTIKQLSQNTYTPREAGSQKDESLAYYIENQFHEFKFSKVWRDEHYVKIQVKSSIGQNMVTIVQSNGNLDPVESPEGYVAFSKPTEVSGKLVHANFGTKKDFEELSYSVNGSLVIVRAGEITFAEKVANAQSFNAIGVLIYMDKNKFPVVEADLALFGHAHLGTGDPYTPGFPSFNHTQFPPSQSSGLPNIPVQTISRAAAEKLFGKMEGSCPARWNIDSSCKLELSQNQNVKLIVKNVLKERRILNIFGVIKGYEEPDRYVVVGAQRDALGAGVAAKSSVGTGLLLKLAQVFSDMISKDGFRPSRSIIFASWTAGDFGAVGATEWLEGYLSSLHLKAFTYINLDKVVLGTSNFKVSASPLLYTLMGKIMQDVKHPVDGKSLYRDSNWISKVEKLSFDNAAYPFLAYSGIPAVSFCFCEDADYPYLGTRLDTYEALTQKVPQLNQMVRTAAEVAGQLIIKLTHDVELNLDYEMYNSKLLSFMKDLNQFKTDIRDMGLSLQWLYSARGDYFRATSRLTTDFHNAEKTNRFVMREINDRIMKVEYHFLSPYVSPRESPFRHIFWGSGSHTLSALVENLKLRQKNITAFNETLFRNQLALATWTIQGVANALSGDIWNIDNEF

| EC50 (read off the curve) [1] | binding result [2] | Binder |
| --- | --- | --- |
| ~5 nM | binds | Herceptarg-scFab(8D3) (BBB-0580) (other, Trispecific, trivalent antibody; also called Herceptarg-8D3; trivalent Herceptarg-scFab(8D3)) heavy 1: [about 450 residues with a human IgG1 Fc not printed]GGSGGGGSGGGGSGGGGSDIQMTQSPASLSASLEEIVTITCQASQDIGNWLAWYQQKPGKSPQLLIYGATSLADGVPSRFSGSRSGTQFSLKISRVQVEDIGIYYCLQAYNTPWTFGGGTKVEIKRTVAAPSVFIFPPSDEQLKSGTASVVCLLNNFYPREAKVQWKVDNALQSGNSQESVTEQDSKDSTYSLSSTLTLSKADYEKHKVYACEVTHQGLSSPVTKSFNRGECGGGGSGGGGSGGGGSGGGGSGGGGSGGGGSGGEVQLVESGGGLVQPGNSLTLSCVASGFTFSNYGMHWIRQAPKKGLEWIAMIYYDSSKMNYADTVKGRFTISRDNSKNTLYLEMNSLRSEDTAMYYCAVPTSHYVVDVWGQGVSVTVSSASTKGPSVFPLAPSSKSTSGGTAALGCLVKDYFPEPVTVSWNSGALTSGVHTFPAVLQSSGLYSLSSVVTVPSSSLGTQTYICNVNHKPSNTKVDKKVEPKSC heavy 2: EVQLVESGGGLVQPGGSLRLSCAASGFTFNDYTMDWVRQAPGKGLEWVADVNPNSGGSIVNRRFKGRFTLSVDRSKNTLYLQMNSLRAEDTAVYYCARNLGPFFYFDYWGQGTLVTVSSASTKGPSVFPLAPSSKSTSGGTAALGCLVKDYFPEPVTVSWNSGALTSGVHTFPAVLQSSGLYSLSSVVTVPSSSLGTQTYICNVNHKPSNTKVDKKV[human IgG1 Fc with changes not printed] light: DIQMTQSPSSLSASVGDRVTITCKASQDVSTAVAWYQQKPGKAPKLLIYSASFRYTGVPSRFSGSRSGTDFTLTISSLQPEDFATYYCQQHYTTPPTFGQGTKVEIKRTVAAPSVFIFPPSDEQLKSGTASVVCLLNNFYPREAKVQWKVDNALQSGNSQESVTEQDSKDSTYSLSSTLTLSKADYEKHKVYACEVTHQGLSSPVTKSFNRGEC |
| ~3 nM | binds | Herceptarg(LALA)-scFab(8D3) (BBB-0581) (other, Trispecific, trivalent antibody; also called Herceptarg (LALA)-8D3; Herceptarg(LALA-PG)-scFab(8D3)) heavy 1: [about 450 residues with a human IgG1 Fc not printed]GGSGGGGSGGGGSGGGGSDIQMTQSPASLSASLEEIVTITCQASQDIGNWLAWYQQKPGKSPQLLIYGATSLADGVPSRFSGSRSGTQFSLKISRVQVEDIGIYYCLQAYNTPWTFGGGTKVEIKRTVAAPSVFIFPPSDEQLKSGTASVVCLLNNFYPREAKVQWKVDNALQSGNSQESVTEQDSKDSTYSLSSTLTLSKADYEKHKVYACEVTHQGLSSPVTKSFNRGECGGGGSGGGGSGGGGSGGGGSGGGGSGGGGSGGEVQLVESGGGLVQPGNSLTLSCVASGFTFSNYGMHWIRQAPKKGLEWIAMIYYDSSKMNYADTVKGRFTISRDNSKNTLYLEMNSLRSEDTAMYYCAVPTSHYVVDVWGQGVSVTVSSASTKGPSVFPLAPSSKSTSGGTAALGCLVKDYFPEPVTVSWNSGALTSGVHTFPAVLQSSGLYSLSSVVTVPSSSLGTQTYICNVNHKPSNTKVDKKVEPKSC heavy 2: EVQLVESGGGLVQPGGSLRLSCAASGFTFNDYTMDWVRQAPGKGLEWVADVNPNSGGSIVNRRFKGRFTLSVDRSKNTLYLQMNSLRAEDTAVYYCARNLGPFFYFDYWGQGTLVTVSSASTKGPSVFPLAPSSKSTSGGTAALGCLVKDYFPEPVTVSWNSGALTSGVHTFPAVLQSSGLYSLSSVVTVPSSSLGTQTYICNVNHKPSNTKVDKKVEPKSCDKTHTCPPCPAPEAAGGPSVFLFPPKPKDTLMISRTPEVTCVVVDVSHEDPEVKFNWYVDGVEVHNAKTKPREEQYNSTYRVVSVLTVLHQDWLNGKEYKCKVSNKALGAPIEKTISKAKGQPREPQVCTLPPSRDELTKNQVSLSCAVKGFYPSDIAVEWESNGQPENNYKTTPPVLDSDGSFFLVSKLTVDKSRWQQGNVFSCSVMHEALHNRFTQKSLSLSPGK light: DIQMTQSPSSLSASVGDRVTITCKASQDVSTAVAWYQQKPGKAPKLLIYSASFRYTGVPSRFSGSRSGTDFTLTISSLQPEDFATYYCQQHYTTPPTFGQGTKVEIKRTVAAPSVFIFPPSDEQLKSGTASVVCLLNNFYPREAKVQWKVDNALQSGNSQESVTEQDSKDSTYSLSSTLTLSKADYEKHKVYACEVTHQGLSSPVTKSFNRGEC |
